Test results as given in publication PMC6919601, “Identification of Plasmodium dipeptidyl aminopeptidase allosteric inhibitors by high throughput screening” (PLoS ONE, 2019).
Where “and” joins values, the source holds several entries; their conditions need not be identical. Equal entries are not always repeated. The whole screen tested about 110,000 compounds, of which about 230 (0.21%) showed an effect of 50% or more. This is one part of the list.

target: DPAP1 (Plasmodium falciparum, UniProt Q8IIJ9); assay: primary screen, percent inhibition; read by cleavage of a fluorogenic dipeptide substrate; higher = more effect of the substance; set-up: species or system P. falciparum D10 trophozoite lysates; single well
Sequence (Q8IIJ9 whole entry, looked up): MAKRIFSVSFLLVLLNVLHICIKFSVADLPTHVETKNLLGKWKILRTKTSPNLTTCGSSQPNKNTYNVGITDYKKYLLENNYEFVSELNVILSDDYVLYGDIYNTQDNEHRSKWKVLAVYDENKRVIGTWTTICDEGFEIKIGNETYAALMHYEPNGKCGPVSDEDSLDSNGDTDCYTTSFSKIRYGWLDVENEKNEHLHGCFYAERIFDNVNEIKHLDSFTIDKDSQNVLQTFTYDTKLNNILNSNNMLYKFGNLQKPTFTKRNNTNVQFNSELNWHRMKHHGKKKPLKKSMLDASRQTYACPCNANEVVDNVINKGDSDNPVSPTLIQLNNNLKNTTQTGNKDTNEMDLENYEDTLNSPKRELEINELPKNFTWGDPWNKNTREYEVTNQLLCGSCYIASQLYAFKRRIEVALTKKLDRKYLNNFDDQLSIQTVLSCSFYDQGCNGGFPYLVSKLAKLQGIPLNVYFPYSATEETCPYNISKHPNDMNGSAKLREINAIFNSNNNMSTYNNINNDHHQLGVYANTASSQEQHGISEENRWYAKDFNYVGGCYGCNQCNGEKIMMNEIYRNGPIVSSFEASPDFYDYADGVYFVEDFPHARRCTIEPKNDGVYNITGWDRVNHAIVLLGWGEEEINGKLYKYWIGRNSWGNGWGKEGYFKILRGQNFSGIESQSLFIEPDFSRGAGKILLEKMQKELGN
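Also: 30 min substrate incubation versus DMSO and 10 µM JCP410 controls.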

SMILES | % Inhibition @ 10 uM
Clc1ccccc1NCn1cnc2ccccc21 | -8.95%
CCCCC(=O)C1=C(NC)CC(C)(C)CC1=O | 0.121%
CCc1ccc(C(=O)NC2=NC(=O)CC(c3cccc(F)c3)N2)cc1 (centres unmarked) | -3.44%
CCOC(=O)c1c(S(=O)(=O)N2CCN(Cc3ccc4c(c3)OCO4)CC2)c(C)n(C)c1C | 2.58%
CCN1CCN(c2ncnc3c2c(-c2ccccc2)cn3-c2cccc(C)c2)CC1 | -1.62%
O=C(Nc1ccccc1C(=O)O)c1cc2ccccc2o1 | -2.37%
COc1cc(C(=O)Nc2ccccc2Cl)cc(OC)c1OC | -3.34%
CCCc1[nH]nc2c1C1(CCN(C(=O)c3ccccc3)CC1)C(C#N)=C(N)O2 | 7.04%
O=C(CC1(O)C(=O)N(Cc2ccc(Cl)cc2)c2ccccc21)c1ccc(F)cc1 (centres unmarked) | 5.77%
CCn1c2ccccc2c2cc(CNc3ccc(C)cc3)ccc21 | 2.91%
COc1cccc(C2C(C#N)=C(N)Oc3cc(C)n(Cc4cccnc4)c(=O)c32)c1OC (centres unmarked) | -3.16%
CCCN1CCN(C(=O)C2COc3ccccc3O2)CC1 (centres unmarked) | -4.74%
CCN1CCN(C(C)CC(C)(C)c2ccc(C)o2)CC1 (centres unmarked) | 4.57%
O=C(Nc1ccccc1NC(=O)c1ccc2c(c1)OCO2)c1ccc2c(c1)OCO2 | -3.45%
Cc1c(C(=O)Nc2cc(-c3cccc(F)c3)no2)sc2nc3n(c(=O)c12)CCCCC3 | -0.205%
CCOc1ccc(NC(=O)Nc2cccc3ccccc23)cc1 | -2.18%
CC(C)NC(=O)Cn1ncc2c3ccccc3n(C)c2c1=O | -0.23%
O=C(NCCC1=CCCCC1)c1ccc(CS(=O)(=O)c2ccc(Cl)cc2)o1 | -4.53%
COc1ccccc1NC(=O)Nc1cccc2ccccc12 | -3.94%
Cc1ccc(C(=O)NCCCNCCCNC(=O)c2ccc(C)nc2)cn1 | -9.83%
O=C1S/C(=C\c2ccco2)C(=O)N1Cc1ccc(F)cc1 | 0.121%
CCN(CC)C(=O)CN(c1cccc(OC)c1)S(=O)(=O)c1ccccc1 | 1.59% and -5.07%
CC(=O)Nc1ccc(N(C)C(C)=O)cc1 | -11.3%
O=C(c1ccc([N+](=O)[O-])o1)N1CCOCC1 | -0.0217%
Nc1nc2n(n1)C(=O)CC(c1ccccc1)N2 (centres unmarked) | 0.0289%
O=C(NC1CCCCCC1)C1c2ccccc2C(=O)N1CCC1=CCCCC1 (centres unmarked) | -0.668%

SMILES | % Inhibition @ 10 uM
CCSc1ncc(Cl)c(C(=O)N(Cc2ccc(Cl)cc2)C2CCS(=O)(=O)C2)n1 (centres unmarked) | -1.11%
Cc1cc(C)n2nc(SC(C)C(=O)NCc3ccccc3Cl)nc2n1 (centres unmarked) | -4.06%
Cc1ccc(C)c(S(=O)(=O)/N=C2\C=CC(=O)c3ccccc32)c1 | 4.74%
COc1ccccc1OCC(O)Cn1cnc2ccccc21 (centres unmarked) | -11%
CCn1c(C(=O)O)c(CNC2CCCCCC2)c2ccc(C)cc21 | -2.97%
CCCCc1nn2c(C)c(-c3ccc(Br)cc3)nc2s1 | -2.71%
CCO/C(O)=C1\C(=O)CCn2c1nc1ccccc12 | -2.91%
CCCc1nn(C)c(C(=O)Nc2ccccc2)c1Cl | 0.343%
C=Cc1ccc(Cn2c(C)c(CNCC(C)c3ccccc3)c(C(=O)O)c2C)cc1 (centres unmarked) | -3.67%
CCCCN(C1CCN(CC)CC1)S(=O)(=O)c1c(C)[nH]c(C)c1C(=O)OCC | -5.69%
COc1ccccc1OCCn1cc(/C=C2/C(=N)N3OC(C)=CC3=NC2=O)c2ccccc21 | -1.43%
COc1ccc(CN2CNc3nc4ccccc4n3C2)cc1 | 3.73%
O=C(CCc1nc2cccnc2n1-c1ccccc1)NCc1ccc(CN2CCOCC2)o1 | -5.25%
Cc1ccc(NC(=O)CN(c2ccc(F)cc2)S(=O)(=O)c2ccccc2)c(C)c1 | 6.65%
O=C(O)C1C2c3ccccc3C(c3ccccc32)C1C(=O)NCc1ccccc1 (centres unmarked) | 1.64%
COc1ccc(-c2nc3cc(Br)cnc3[nH]2)cc1 | 2.4%
CCN(CC)CCCNC(=O)Cn1cc2c(n1)-c1c(oc(C(=O)N3CCOCC3)c1C)CC2 | 5.69%
Cc1ccc(S(=O)(=O)N2CCN(C(=O)c3ccc(Br)cc3)CC2)c(C)c1 | 1.52%
Cc1cc(=O)n2nc(N3CCC(C(=O)NCCCN4CCOCC4)CC3)sc2n1 | 3%
Cn1c(C(=O)NCc2cccnc2)cc2c(=O)n3ccccc3nc21 | 2.4%
O=S(=O)(Nc1ccccc1F)c1ccc(F)cc1 | 0.815%
Cc1ccc(CNC(=O)CN(c2cccc3ccccc23)S(C)(=O)=O)cc1 | -6.05%
O=C(NCc1ccc(Cl)cc1)c1cnn2ccccc12 | -6.52%
CN(C)CCN(C(=O)c1nc2ccccc2s1)c1nc2ccc(Cl)cc2s1 | -4.16%
COC(=O)C1C(=O)c2c(n[nH]c2C)CC1(C)C (centres unmarked) | -2.55%
CC1CCN(C(=O)CCCc2nnc3n(C)c(=O)c4sccc4n23)CC1 | -7.48%

SMILES | % Inhibition @ 10 uM
CN(C)CCN(Cc1ccccc1)Cc1ccccc1Br | 2.7%
CCN(CC)c1nc(N2CCOCC2)nc(N2CCOCC2)n1 | -6.25%
Cc1ccc2c(c1)c(-c1ccccc1)c(-c1ccccc1)n2CC(O)CN1CCCCC1 (centres unmarked) | -8.99%
COc1ccc(-c2csc(-c3c[nH]c4ccccc34)n2)cc1 | 0.291%
CCOc1cc(/C=C(/C#N)C(N)=O)ccc1O | -2.66%
CCC(C)[C@@H](C(=O)NCCc1ccccc1)N1Cc2ccccc2C1=O (some centres unmarked) | 1.26%
COc1ccc(C)cc1NC(=O)Cn1cnc2c1c(=O)n(C)c(=O)n2C | -3.87%
CC(NC(=O)c1ccco1)c1cc2c(cc1Cl)OCCCO2 (centres unmarked) | -1.28%
O=C(NCC1CCCO1)c1ccc(Cn2c(SCc3ccc(F)cc3)nc3cccnc32)cc1 (centres unmarked) | 9.02%
Cc1nn(-c2ccccc2)c(-n2cccc2)c1C(=O)NCc1cccc(Cl)c1 | 3.4%
COc1ccc2c(CNCc3ccc(OC(C)C)cc3)c(C(=O)O)[nH]c2c1 | 0.711%
O=C1NC(=O)/C(=C\c2ccc(OCc3cccc(C(=O)O)c3)cc2)N1 | 3.49%
Fc1ccc(N2CCN(Cc3cc(Br)cs3)CC2)cc1 | -7.6%
FC(F)(F)c1cc(-c2ccccc2)nc(-n2ccnc2)n1 | -4.43%
Nc1c(C(=O)Nc2c(F)cc(F)cc2Br)sc2nc3c(cc12)CCC3 | -4.15%
O=C(Nc1cccnc1)c1cc2nc(-c3ccc(Cl)s3)cc(C(F)(F)F)n2n1 | 5.54%
CCOc1ccc(C2=CC(c3ccc(OC(F)F)cc3)n3nnnc3N2)cc1Cl (centres unmarked) | 0.0842%
COc1ccc(S(=O)(=O)N2CCCCC2)cc1 | -2.21%
COc1ccc(CCNS(=O)(=O)c2ccc(CN3C(=O)c4cccnc4C3=O)s2)cc1OC | -5.16%
NS(=O)(=O)c1ccc(CCNC(=O)CC(c2ccccc2)c2ccccc2)cc1 | -12.8%
CC[C@H](C)[C@H](NC(=O)c1cccc(F)c1)C(=O)N[C@@H](CCc1ccccc1)C(=O)CO | -7.36%
CC(NC(=O)c1ccccc1)C(O)c1ccccc1 (centres unmarked) | 0.035%
CCc1c(C#N)c(SCC(=O)Nc2cccc(OC)c2)nc2c1C(=O)CC(C)(C)C2 | 0.722%
COc1ccc(OCC2c3cc(OC)c(OC)cc3CCN2C(=O)c2cc(OC)cc(OC)c2)cc1 (centres unmarked) | -2.7%
C=Cn1nccc1C(O)(CCCN(C)C)c1ccncc1 (centres unmarked) | 1.89%
Cc1ccc(S(=O)(=O)Nc2nn(CC(C)C)c3nc4ccccc4cc23)cc1 | -0.671%

SMILES | % Inhibition @ 10 uM
Cc1cc(C)nc(SCC(=O)c2ccc(F)c(C)c2)n1 | 5.63%
Cc1ccsc1CN1CCCC(CO)C1 (centres unmarked) | -3.27%
COC(=O)c1c(NC(=O)c2cccnc2Cl)sc2c1CCCCC2 | 1.13%
Cc1cccn2cc(CNC(=O)c3ccc(Br)o3)nc12 | 4.86%
N#C/C(C1=NCCC1)=C(/O)c1ccccc1 | 0.266%
Cc1cc2ccccc2cc1CN1CCOCC1 | -5.59%
CC(NC(=O)/C=C/c1ccccc1Cl)c1ccccc1 (centres unmarked) | -4.01% and 0.736%
N#CC1=C(N)Oc2[nH]nc(-c3ccccc3)c2C1c1ccccc1Br (centres unmarked) | -4.33%
CCOC(=O)c1ccc(-c2ccc(/C=C(\C#N)c3[nH]nc(N)c3C#N)o2)cc1 | 0.997%
O=C(NCc1ccccc1Cl)c1cc(S(=O)(=O)N2CCCCC2)c[nH]1 | 0.274%
CCc1ccc(C2c3c(oc4cc(C)c(C)cc4c3=O)C(=O)N2CCCN2CCOCC2)cc1 (centres unmarked) | 2.31%
Cc1ccc(C)c(S(=O)(=O)N2CCOCC2)c1 | -0.268%
Oc1nsnc1N1CCCCC1 | -4.75%
Cc1ccc(C)c(NC(=O)CN(c2cc(Cl)ccc2C)S(C)(=O)=O)c1 | 3.09%
Cc1cccc2[nH]c(SCc3ccccc3)nc12 | -2.88%
COc1cc(Br)c(CNC2CCCCC2C)cc1OC (centres unmarked) | -8.3%
Cc1ccc2c(C)c(C(=O)N(Cc3ccccc3F)C3CCS(=O)(=O)C3)oc2c1C (centres unmarked) | 3.62%
CCCSCCCn1cnc2c3cc(OC)ccc3nc-2c1O | 3.24%
N#CC1=C(N)OC(c2ccccc2)=C(n2nnnc2N)C1c1cccnc1 (centres unmarked) | -5.36%
CCOC(=O)c1cnc2c(ccc3ccccc32)c1NC1CCCCC1 | -3.06%
O=C(CSc1oc(-c2ccco2)nc1S(=O)(=O)c1ccccc1)c1ccccc1 | 4.77%
COc1ccc(S(=O)(=O)Nc2ccc(Cl)c(Cl)c2)cc1 | 6.6%
CCOC(=O)c1c(NC(=O)c2ccc(S(=O)(=O)N3CCOCC3)cc2)sc2c1CCN(C)C2 | 7.26%
